Experimental data reported in the supplement of paper PMC8512760.
The list shows a part of the results. Single values are uncertain, as repeats are few or missing.

Assays:
Assay in all cases: cell viability relative to vehicle (% of vehicle); basal-like triple-negative breast cancer lines; higher = less cytotoxic
Conditions in all cases: 10 µM; 72 h
[1] = tested on: HCC-1143
[2] = tested on: HCC-1187
[3] = tested on: MDA-468
[4] = tested on: SUM-149
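Further: stably firefly luciferase-GFP labeled cells in 96-well plates, viability read as luciferase photon flux after d-luciferin addition, treated wells normalized to vehicle wells, single-dose high-throughput screen.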

Compound | cell viability [1] | cell viability [2] | cell viability [3] | cell viability [4]
C[N+](C)(C)CC(=O)[O-] [Betaine] | 90.2 | 87.9 | 116 | 91.6
CCOC(=O)CC(=O)N1CCSC1COc1ccccc1OC (centres undefined) [Moguisteine] | 85.4 | 93.9 | 110 | 109
Cc1c(-c2cnccn2)ssc1=S [Oltipraz] | 72 | 76.7 | 102 | 79.4
CNC(=O)c1cc(Oc2ccc(NC(=O)Nc3ccc(Cl)c(C(F)(F)F)c3)c(F)c2)ccn1.Cl [Regorafenib hydrochloride] | 84.8 | 101 | 89.6 | 111
CC(C)NCC(O)COc1ccc(CCOCC2CC2)cc1.Cl (centres undefined) [Betaxolol HCl] | 75.9 | 99.5 | 104 | 135
CN(C)CCc1c[nH]c2ccc(Cn3cncn3)cc12.O=C(O)c1ccccc1 [Rizatriptan Benzoate] | 74.1 | 101 | 122 | 116
CC(C)C1C(=O)NC(CCCN=C(N)N)C(=O)NCC(=O)NC(CC(=O)O)C(=O)NC(Cc2ccccc2)C(=O)N1C (centres undefined) [Cilengitide] | 85.1 | 80.9 | 105 | 118
CC(C)(OCc1nn(Cc2ccccc2)c2ccccc12)C(=O)O [Bindarit] | 84.7 | 82.8 | 93 | 121
CCCCCCCCc1ccc(CCC(N)(CO)CO)cc1.Cl [Fingolimod (FTY720)] | 74.5 | 59.9 | 113 | 86.4
CC(C)(C)c1ccc(C(=O)CCCN2CCC(OC(c3ccccc3)c3ccccc3)CC2)cc1 [Ebastine] | 70.9 | 93.7 | 102 | 77.5
NC(=O)N1c2ccccc2C=Cc2ccccc21 [Carbamazepine] | 86 | 82.3 | 97.1 | 123
Cc1ccc(Cl)c(Nc2ccccc2C(=O)[O-])c1Cl.[Na+] [Meclofenamate Sodium] | 135 | 118 | 106 | 108
Cl.NCCS [Cysteamine HCl] | 72 | 86.5 | 97.3 | 104
O=C(NN=Cc1ccc([N+](=O)[O-])o1)c1ccc(O)cc1 [Nifuroxazide] | 74.2 | 76.3 | 66.6 | 101
Clc1ccc2c(c1)C(N1CCNCC1)=Nc1ccccc1O2 [Amoxapine] | 78.9 | 80.9 | 112 | 92.9
CNC(=O)c1cc(Oc2ccc(NC(=O)Nc3ccc(Cl)c(C(F)(F)F)c3)c(F)c2)ccn1 [Regorafenib] | 103 | 104 | 103 | 100
O=C(C=Cn1cnc(-c2cc(C(F)(F)F)cc(C(F)(F)F)c2)n1)NNc1cnccn1 | 27.7 | 23 | 34.4 | 34.1
CS(=O)(=O)N1CCN(Cc2cc3nc(-c4cccc5[nH]ncc45)nc(N4CCOCC4)c3s2)CC1 | 95.1 | 70.8 | 79.4 | 117
C[C@@H]1C[C@H]2[C@H]3CCC4=CC(=O)C=C[C@]4(C)[C@@]3(F)[C@@H](O)C[C@]2(C)[C@@]1(O)C(=O)CO [Dexamethasone (DHAP)] | 87 | 112 | 130 | 172

Compound | cell viability [1] | cell viability [2] | cell viability [3] | cell viability [4]
CCc1cc(C(N)=S)ccn1 [Ethionamide] | 77.4 | 83.2 | 99.9 | 98.4
CN(C(=O)CN(CCO)CC(=O)N(C)C(C)(C)Cc1ccccc1)C(C)(C)Cc1ccccc1 [Oxethazaine] | 93.7 | 99.5 | 104 | 73.7
O=C1OC(C(O)CO)C([O-])=C1O.[Na+] (centres undefined) [Sodium ascorbate] | 78.8 | 107 | 113 | 93.5
CN(C)CCN(Cc1ccccc1)c1ccccn1.Cl [Tripelennamine HCl] | 73.6 | 65.8 | 116 | 96.2
COc1cc2c(Oc3ccc4[nH]c(C)cc4c3F)ncnc2cc1OCCCN1CCCC1 [Cediranib (AZD217)] | 88 | 79.9 | 75.1 | 83.1
COc1ccc(Cl)cc1C(=O)NCCc1ccc(S(=O)(=O)NC(=O)NC2CCCCC2)cc1 [Glibenclamide] | 79.1 | 86.5 | 134 | 120
C=C(c1ccc(C(=O)O)cc1)c1cc2c(cc1C)C(C)(C)CCC2(C)C [Bexarotene] | 95 | 108 | 95.1 | 107
Cl.NNc1nncc2ccccc12 [Hydralazine HCl] | 83.8 | 71.9 | 99.4 | 63
O=C1CCC(C(=O)N2CSCC2C(=O)O)N1 (centres undefined) [Pidotimod] | 93.6 | 105 | 121 | 123
Cc1cnc(Nc2ccc(OCCN3CCCC3)cc2)nc1Nc1cccc(S(=O)(=O)NC(C)(C)C)c1 | 68.3 | 40.1 | 62.2 | 57.5
O=C1Nc2ccc(Cl)cc2C(C#CC2CC2)(C(F)(F)F)O1 (centres undefined) [Efavirenz] | 86.9 | 85.9 | 134 | 122
CC1(C)SC2C(NC(=O)C(N)c3ccccc3)C(=O)N2C1C(=O)[O-].[Na+] (centres undefined) [Ampicillin] | 82.3 | 91.7 | 84.7 | 89.9
CC(CCc1ccccc1)NCC(O)c1ccc(O)c(C(N)=O)c1.Cl (centres undefined) [Labetalol HCl] | 94.6 | 114 | 119 | 80.4
CC(C)(C)C(=O)OCOP(=O)(COCCn1cnc2c(N)ncnc21)OCOC(=O)C(C)(C)C [Adefovir Dipivoxil] | 88.5 | 97.5 | 83.8 | 96.4
C/C=C/C1=C(C(=O)O)N2C(=O)[C@@H](NC(=O)[C@H](N)c3ccc(O)cc3)[C@@H]2SC1 [Cefprozil] | 89.1 | 93.8 | 110 | 99.7
NCCCC(O)(P(=O)([O-])O)P(=O)(O)O.O.O.O.[Na+] [Alendronate] | 74.8 | 88.7 | 89.4 | 63.1
Cc1cccc(C)c1NC(=O)C1CCCCN1C.Cl (centres undefined) [Mepivacaine HCl] | 69.4 | 96.2 | 101 | 80.9
O=C(O)C1=CC(=NNc2ccc([O-])c(C(=O)[O-])c2)C=CC1=O.[Na+].[Na+] [Olsalazine Sodium] | 70.3 | 109 | 102 | 73
Cc1c(NC(=O)c2cccnc2)c(=O)n(-c2ccccc2)n1C [Nifenazone] | 94.6 | 117 | 77.2 | 95.2

Compound | cell viability [1] | cell viability [2] | cell viability [3] | cell viability [4]
CC(=O)SC1CC2=CC(=O)CCC2(C)C2CCC3(C)C(CCC34CCC(=O)O4)C12 (centres undefined) [Spironolactone] | 74.1 | 83.2 | 112 | 84
Nc1ccn(C2CSC(CO)O2)c(=O)n1 (centres undefined) [Lamivudine] | 111 | 91.6 | 109 | 105
Nc1nc(NC2CC2)c2ncn(C3C=CC(CO)C3)c2n1.O=S(=O)(O)O (centres undefined) [Abacavir sulfate] | 84.7 | 75.9 | 87.6 | 83.3
CC(C)OC(=O)C(C(=O)OC(C)C)=C1SC=CS1 [Malotilate] | 80.6 | 82.4 | 81 | 90.7
CCOC(=O)c1ccc(C#Cc2ccc3c(c2)C(C)(C)CCS3)nc1 [Tazarotene] | 84 | 117 | 113 | 107
COc1ccc(C(=O)c2ccccc2)c(O)c1 [Oxybenzone] | 90.1 | 110 | 118 | 98.5
CNC(=O)[C@H](Cc1ccccc1)NC(=O)[C@H](CC(C)C)[C@H](CSc1cccs1)C(=O)NO [Batimastat (BB-94)] | 93.3 | 78.7 | 72.4 | 68.2
Cc1ccnc(NS(=O)(=O)c2ccc(N)cc2)n1 [Sulfamerazine] | 78.3 | 74.8 | 96.4 | 99.9
CC#CC1(O)CCC2C3CCC4=CC(=O)CCC4=C3C(c3ccc(N(C)C)cc3)CC21C (centres undefined) [Mifepristone] | 54.8 | 96.6 | 55.1 | 101
CCn1cc(C(=O)O)c(=O)c2cc(F)c(N3CCNCC3)nc21 [Enoxacin (Penetrex)] | 63.5 | 82.6 | 76.9 | 153
CN(C)c1cc(NC(=O)CNC(C)(C)C)c(O)c2c1CC1CC3C(N(C)C)C(=O)C(C(N)=O)=C(O)C3(O)C(=O)C1=C2O (centres undefined) [Tigecycline] | 77 | 112 | 82.6 | 115
O=C(O)C1=COC(OC2OC(CO)C(O)C(O)C2O)C2C(CO)=CCC12 (centres undefined) [Geniposidic acid] | 89.3 | 88.5 | 117 | 116
CCCCOc1ccc(OCCCN2CCOCC2)cc1.Cl [Pramoxine HCl] | 122 | 113 | 89.6 | 123
O=c1sn(-c2cccc3ccccc23)c(=O)n1Cc1ccccc1 [Tideglusib] | 75.4 | 98.5 | 68 | 112
COc1ncc(-c2ccc3nccc(-c4ccnnc4)c3c2)cc1NS(=O)(=O)c1ccc(F)cc1F | 61.9 | 64.4 | 58.9 | 45
COCCc1ccc(OCC(O)CNC(C)C)cc1.COCCc1ccc(OCC(O)CNC(C)C)cc1.O=C(O)C(O)C(O)C(=O)O (centres undefined) [Metoprolol Tartrate] | 79.3 | 97.2 | 93.4 | 95.6
CCCSc1nc(NC2CC2c2ccc(F)c(F)c2)c2nnn(C3CC(OCCO)C(O)C3O)c2n1 (centres undefined) [Ticagrelor] | 65.7 | 90.3 | 106 | 101
O=S(=O)([O-])Oc1ccc(C(c2ccc(OS(=O)(=O)[O-])cc2)c2ccccn2)cc1.[Na+].[Na+] [Sodium Picosulfate] | 85.2 | 80.8 | 94.9 | 102
